# Results published in the supplement of paper PMC8728848.
# The other results are listed elsewhere or left out.
# B1: AidA (Burkholderia cenocepacia) (protein)
# chain: MSRVTDVLVSFDTETILKKYPNPSKNPAAPTLIDWRYVYMVTNQDNVISGQAGGELDLKAQVGDLIRWRETSLSLGFENQVVFYKFIGNVGNDLISTPTPRVAEASIPVPNTSKPEVPTCQKVANYYWSSECLKVGRVTYHFQFQIIDRNCQSQGCFSWDPFISIHN
# Tests used:
# Assay in all cases: glycan array binding signal (z-score within array); higher = stronger binding
# Conditions in all cases: glycan notation: IUPAC condensed, linker removed
# [1] = target: Neu5Ac(a2-3)Gal(b1-3)GalNAc
# Outline: (§1)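 From the Consortium for Functional Glycomics database, 3228 arrays were curated, keeping only those whose protein sequence was available. Binding is given as a within-array Z-score averaged across arrays sharing a protein sequence and across linkers. Negative Z-scores can be read as non-binding.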
# [2] = target: Neu5Ac(a2-3)Gal(b1-3)GalNAc(b1-3)Gal(a1-4)Gal(b1-4)Glc
# Outline: as §1
# [3] = target: Neu5Ac(a2-3)Gal(b1-3)GalNAc(b1-4)[Neu5Ac(a2-3)]Gal(b1-4)Glc
# Outline: as §1
# [4] = target: Neu5Ac(a2-3)Gal(b1-3)GalNAc(b1-4)[Neu5Ac(a2-8)Neu5Ac(a2-3)]Gal(b1-4)Glc
# Outline: as §1
# [5] = target: Neu5Ac(a2-3)Gal(b1-3)GalNAc6S
# Outline: as §1
# [6] = target: Neu5Ac(a2-3)Gal(b1-3)GlcNAc
# Outline: as §1
# [7] = target: Neu5Ac(a2-3)Gal(b1-3)GlcNAc(b1-2)Man
# Outline: as §1
# [8] = target: Neu5Ac(a2-3)Gal(b1-3)GlcNAc(b1-2)Man(a1-3)[GlcNAc(b1-4)][Neu5Ac(a2-3)Gal(b1-3)GlcNAc(b1-2)Man(a1-6)]Man(b1-4)GlcNAc(b1-4)GlcNAc
# Outline: as §1
# [9] = target: Neu5Ac(a2-3)Gal(b1-3)GlcNAc(b1-2)Man(a1-3)[Neu5Ac(a2-3)Gal(b1-3)GlcNAc(b1-2)Man(a1-6)]Man(b1-4)GlcNAc(b1-4)GlcNAc
# Outline: as §1
# [10] = target: Neu5Ac(a2-3)Gal(b1-3)GlcNAc(b1-3)Gal(b1-3)GlcNAc
# Outline: as §1
# [11] = target: Neu5Ac(a2-3)Gal(b1-3)GlcNAc(b1-3)Gal(b1-4)GlcNAc
# Outline: as §1
# [12] = target: Neu5Ac(a2-3)Gal(b1-3)GlcNAc(b1-3)GalNAc
# Outline: as §1
# [13] = target: Neu5Ac(a2-3)Gal(b1-3)GlcNAc(b1-4)Gal(b1-4)Glc
# Outline: as §1
# [14] = target: Neu5Ac(a2-3)Gal(b1-3)GlcNAc(b1-6)GalNAc
# Outline: as §1
# [15] = target: Neu5Ac(a2-3)Gal(b1-3)GlcNAc6S
# Outline: as §1
# [16] = target: Neu5Ac(a2-3)Gal(b1-3)[Fuc(a1-4)]GlcNAc
# Outline: as §1
# [17] = target: Neu5Ac(a2-3)Gal(b1-3)[Fuc(a1-4)]GlcNAc(b1-3)Gal(b1-3)[Fuc(a1-4)]GlcNAc
# Outline: as §1
# [18] = target: Neu5Ac(a2-3)Gal(b1-3)[Fuc(a1-4)]GlcNAc(b1-3)Gal(b1-4)[Fuc(a1-3)]GlcNAc
# Outline: as §1
# [19] = target: Neu5Ac(a2-3)Gal(b1-3)[GlcNAc(b1-6)]GalNAc
# Outline: as §1
# [20] = target: Neu5Ac(a2-3)Gal(b1-3)[Neu5Ac(a2-6)]GalNAc
# Outline: as §1
# [21] = target: Neu5Ac(a2-3)Gal(b1-3)[Neu5Ac(a2-6)]GlcNAc(b1-3)[Fuc(a1-3)[Gal(b1-4)]GlcNAc(b1-6)]Gal(b1-4)Glc
# Outline: as §1
# [22] = target: Neu5Ac(a2-3)Gal(b1-3)]Neu5Ac(a2-3)Gal(b1-4)]GlcNAc
# Outline: as §1
# Neu5Ac(a2-3)Gal(b1-4)Glc = target: Neu5Ac(a2-3)Gal(b1-4)Glc
# Outline: as §1
# [23] = target: Neu5Ac(a2-3)Gal(b1-4)GlcNAc
# Outline: as §1
# [24] = target: Neu5Ac(a2-3)Gal(b1-4)GlcNAc(b1-2)Man
# Outline: as §1
# [25] = target: Neu5Ac(a2-3)Gal(b1-4)GlcNAc(b1-2)Man(a1-3)[GlcNAc(b1-4)][Neu5Ac(a2-3)Gal(b1-4)GlcNAc(b1-2)Man(a1-6)]Man(b1-4)GlcNAc(b1-4)GlcNAc
# Outline: as §1
# [26] = target: Neu5Ac(a2-3)Gal(b1-4)GlcNAc(b1-2)Man(a1-3)[Neu5Ac(a2-3)Gal(b1-4)GlcNAc(b1-2)Man(a1-6)]Man(b1-4)GlcNAc(b1-4)GlcNAc
# Outline: as §1
# [27] = target: Neu5Ac(a2-3)Gal(b1-4)GlcNAc(b1-2)Man(a1-3)[Neu5Ac(a2-3)Gal(b1-4)GlcNAc(b1-2)Man(a1-6)]Man(b1-4)GlcNAc(b1-4)[Fuc(a1-6)]GlcNAc
# Outline: as §1
# [28] = target: Neu5Ac(a2-3)Gal(b1-4)GlcNAc(b1-2)Man(a1-3)[Neu5Ac(a2-6)Gal(b1-4)GlcNAc(b1-2)Man(a1-6)]Man(b1-4)GlcNAc(b1-4)GlcNAc
# Outline: as §1
# [29] = target: Neu5Ac(a2-3)Gal(b1-4)GlcNAc(b1-2)[Neu5Ac(a2-3)Gal(b1-4)GlcNAc(b1-4)]Man(a1-3)[GlcNAc(b1-4)][Neu5Ac(a2-3)Gal(b1-4)GlcNAc(b1-2)[Neu5Ac(a2-3)Gal(b1-4)GlcNAc(b1-6)]Man(a1-6)]Man(b1-4)GlcNAc(b1-4)GlcNAc
# Outline: as §1
# [30] = target: Neu5Ac(a2-3)Gal(b1-4)GlcNAc(b1-2)[Neu5Ac(a2-3)Gal(b1-4)GlcNAc(b1-4)]Man(a1-3)[GlcNAc(b1-4)][Neu5Ac(a2-3)Gal(b1-4)GlcNAc(b1-4)Man(a1-6)]Man(b1-4)GlcNAc(b1-4)GlcNAc
# Outline: as §1
# [31] = target: Neu5Ac(a2-3)Gal(b1-4)GlcNAc(b1-2)[Neu5Ac(a2-3)Gal(b1-4)GlcNAc(b1-6)]Man(a1-6)[Neu5Ac(a2-3)Gal(b1-4)GlcNAc(b1-2)Man(a1-3)]Man(b1-4)GlcNAc(b1-4)GlcNAc
# Outline: as §1
# [32] = target: Neu5Ac(a2-3)Gal(b1-4)GlcNAc(b1-2)[Neu5Ac(a2-3)Gal(b1-4)GlcNAc(b1-6)]Man(a1-6)[Neu5Ac(a2-3)Gal(b1-4)GlcNAc(b1-2)Man(a1-3)][GlcNAc(b1-4)]Man(b1-4)GlcNAc(b1-4)GlcNAc
# Outline: as §1
# [33] = target: Neu5Ac(a2-3)Gal(b1-4)GlcNAc(b1-3)Gal
# Outline: as §1
# [34] = target: Neu5Ac(a2-3)Gal(b1-4)GlcNAc(b1-3)Gal(b1-3)GlcNAc
# Outline: as §1
# [35] = target: Neu5Ac(a2-3)Gal(b1-4)GlcNAc(b1-3)Gal(b1-4)GlcNAc
# Outline: as §1
# [36] = target: Neu5Ac(a2-3)Gal(b1-4)GlcNAc(b1-3)Gal(b1-4)GlcNAc(b1-2)Man(a1-3)[Neu5Ac(a2-3)Gal(b1-4)GlcNAc(b1-3)Gal(b1-4)GlcNAc(b1-2)Man(a1-6)]Man(b1-4)GlcNAc(b1-4)GlcNAc
# Outline: as §1
# [37] = target: Neu5Ac(a2-3)Gal(b1-4)GlcNAc(b1-3)Gal(b1-4)GlcNAc(b1-3)Gal(b1-4)GlcNAc
# Outline: as §1
# [38] = target: Neu5Ac(a2-3)Gal(b1-4)GlcNAc(b1-3)Gal(b1-4)GlcNAc(b1-3)Gal(b1-4)GlcNAc(b1-2)Man(a1-3)[Neu5Ac(a2-3)Gal(b1-4)GlcNAc(b1-3)Gal(b1-4)GlcNAc(b1-3)Gal(b1-4)GlcNAc(b1-2)Man(a1-6)]GalNAc
# Outline: as §1
# [39] = target: Neu5Ac(a2-3)Gal(b1-4)GlcNAc(b1-3)Gal(b1-4)GlcNAc(b1-3)GalNAc
# Outline: as §1
# [40] = target: Neu5Ac(a2-3)Gal(b1-4)GlcNAc(b1-3)Gal(b1-4)GlcNAc(b1-3)[Neu5Ac(a2-3)Gal(b1-4)GlcNAc(b1-3)Gal(b1-4)GlcNAc(b1-6)]GalNAc
# Outline: as §1
# [41] = target: Neu5Ac(a2-3)Gal(b1-4)GlcNAc(b1-3)Gal(b1-4)GlcNAc(b1-6)[Gal(b1-3)]GalNAc
# Outline: as §1
# [42] = target: Neu5Ac(a2-3)Gal(b1-4)GlcNAc(b1-3)Gal(b1-4)[Fuc(a1-3)]GlcNAc
# Outline: as §1
# [43] = target: Neu5Ac(a2-3)Gal(b1-4)GlcNAc(b1-3)GalNAc
# Outline: as §1
# [44] = target: Neu5Ac(a2-3)Gal(b1-4)GlcNAc(b1-3)[Neu5Ac(a2-3)Gal(b1-4)GlcNAc(b1-6)]GalNAc
# Outline: as §1
binder,measurement,setting,value
B1,glycan array binding signal (z-score),[1],-0.739
same,glycan array binding signal (z-score),[2],1
same,glycan array binding signal (z-score),[3],-0.642
same,glycan array binding signal (z-score),[4],-0.849
same,glycan array binding signal (z-score),[5],0.29
same,glycan array binding signal (z-score),[6],0.059
same,glycan array binding signal (z-score),[7],-0.198
same,glycan array binding signal (z-score),[8],-0.017
same,glycan array binding signal (z-score),[9],0.807
same,glycan array binding signal (z-score),[10],-0.146
same,glycan array binding signal (z-score),[11],0.402
same,glycan array binding signal (z-score),[12],-0.595
same,glycan array binding signal (z-score),[13],-0.358
same,glycan array binding signal (z-score),[14],-0.685
same,glycan array binding signal (z-score),[15],-0.232
same,glycan array binding signal (z-score),[16],0.146
same,glycan array binding signal (z-score),[17],-0.82
same,glycan array binding signal (z-score),[18],-0.303
same,glycan array binding signal (z-score),[19],-0.597
same,glycan array binding signal (z-score),[20],-0.099
same,glycan array binding signal (z-score),[21],-0.545
same,glycan array binding signal (z-score),[22],-0.396
same,glycan array binding signal (z-score),Neu5Ac(a2-3)Gal(b1-4)Glc,1.04
same,glycan array binding signal (z-score),[23],-0.138
same,glycan array binding signal (z-score),[24],1.58
same,glycan array binding signal (z-score),[25],-0.361
same,glycan array binding signal (z-score),[26],-1.1
same,glycan array binding signal (z-score),[27],-0.317
same,glycan array binding signal (z-score),[28],-0.742
same,glycan array binding signal (z-score),[29],-0.793
same,glycan array binding signal (z-score),[30],0.162
same,glycan array binding signal (z-score),[31],-0.231
same,glycan array binding signal (z-score),[32],-0.721
same,glycan array binding signal (z-score),[33],0.027
same,glycan array binding signal (z-score),[34],0.211
same,glycan array binding signal (z-score),[35],-0.255
same,glycan array binding signal (z-score),[36],-0.048
same,glycan array binding signal (z-score),[37],-0.05
same,glycan array binding signal (z-score),[38],-0.338
same,glycan array binding signal (z-score),[39],-0.359
same,glycan array binding signal (z-score),[40],-0.837
same,glycan array binding signal (z-score),[41],-0.559
same,glycan array binding signal (z-score),[42],-0.026
same,glycan array binding signal (z-score),[43],-0.359
same,glycan array binding signal (z-score),[44],-0.557
